In the antibiotic and cytotoxicity screens of Wong et al. (2023):
The other results are listed elsewhere or left out.

Columns and labels:
HSkMC = human skeletal muscle cells; test: cytotoxicity call (relative viability < 0.9); settings: 10 µM
HepG2 = test: cytotoxicity call (relative viability < 0.9); settings: 10 µM
S. aureus RN4220 = test: growth inhibition call (relative growth <= 0.2); settings: 50 µM

Cc1noc(C)c1NC(=O)Nc1cccc2c1O[C@@H](CN(C)S(=O)(=O)c1cn(C)cn1)[C@H](C)CN([C@H](C)CO)C2=O
inactive: cytotoxicity call (HSkMC) | cytotoxicity call (HepG2) | growth inhibition call (S. aureus RN4220)

C[C@H](CO)N1C[C@H](C)[C@@H](CN(C)Cc2ccc(C(=O)O)cc2)OCCCC[C@H](C)Oc2ccc(NC(=O)CCC(F)(F)F)cc2C1=O
inactive: cytotoxicity call (HSkMC) | cytotoxicity call (HepG2) | growth inhibition call (S. aureus RN4220)

COc1ccc(S(=O)(=O)Nc2cccc3c2O[C@H](CN(C)C(=O)Nc2cccc4ccccc24)[C@H](C)CN([C@@H](C)CO)C3=O)cc1
inactive: cytotoxicity call (HSkMC) | cytotoxicity call (HepG2) | growth inhibition call (S. aureus RN4220)

Cn1cc[nH]c1=S
inactive: cytotoxicity call (HSkMC) | cytotoxicity call (HepG2) | growth inhibition call (S. aureus RN4220)

CC(=O)N1[C@H](CO)[C@H](c2ccccc2)C12CN(C(=O)CN1CCOCC1)C2
inactive: cytotoxicity call (HSkMC) | cytotoxicity call (HepG2) | growth inhibition call (S. aureus RN4220)

C[C@H](CO)N1C[C@H](C)[C@@H](CN(C)S(C)(=O)=O)OCc2cnnn2CCCC1=O
inactive: cytotoxicity call (HSkMC) | cytotoxicity call (HepG2) | growth inhibition call (S. aureus RN4220)
